Data on 26 molecules can be found in US10273244B2, “Substituted hexahydropyrrolo[3,4-b]pyrroles and hexahydrocyclopenta[c]pyrroles as dopamine receptor modulators” (INDIVIOR UK LIMITED, priority 2015, dated 2019).

Counter-ions that a name gives are not always drawn.

In the first test the target is human dopamine receptor type 2, long variant (hD2L), CHO-Gα16-hD2L cells (Homo sapiens (Human), UniProt P14416).
Chain of UniProt P14416 (P14416 whole entry): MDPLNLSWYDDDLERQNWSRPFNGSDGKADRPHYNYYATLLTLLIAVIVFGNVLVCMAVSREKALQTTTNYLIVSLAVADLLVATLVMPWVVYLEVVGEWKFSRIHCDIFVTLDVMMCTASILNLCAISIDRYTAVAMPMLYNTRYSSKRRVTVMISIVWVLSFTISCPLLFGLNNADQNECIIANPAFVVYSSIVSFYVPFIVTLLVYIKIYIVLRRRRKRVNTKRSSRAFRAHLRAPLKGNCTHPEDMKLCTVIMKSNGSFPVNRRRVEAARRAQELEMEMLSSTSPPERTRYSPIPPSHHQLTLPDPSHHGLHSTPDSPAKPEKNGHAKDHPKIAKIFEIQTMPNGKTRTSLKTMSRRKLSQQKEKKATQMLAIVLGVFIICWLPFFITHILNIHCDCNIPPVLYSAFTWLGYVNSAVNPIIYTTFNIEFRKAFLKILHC
Settings: not given
For orientation: Ki means a measure of affinity in units of concentration, obtained from inhibition or displacement. High values mean lower affinity, low ones higher affinity. Consider `Cn1c(SCCCN2C[C@@H]3CCN(c4cccnc4)[C@@H]3C2)nnc1C1CCCCC1` (single isomer, unassigned) [Example 69, 3-[(3aS,6aS or 3aR,6aR)-5-{3-[(5-cyclohexyl-4-methyl-4H-1,2,4-triazol-3-yl)sulfanyl]propyl}-octahydropyrrolo[2,3-c]pyrrol-1-yl]pyridine], for which the inhibition constant (Ki) is 1480 nM.
Still for that read-out and setting: with `Cc1ncoc1-c1nnc(SCCCN2C[C@H]3CCN(c4ccccc4)[C@H]3C2)n1C` (single isomer, unassigned) [Example 16, 3-({3-[(3aR,6aR or 3aS,6aS)-1-phenyl-octahydropyrrolo[2,3-c]pyrrol-5-yl]propyl}sulfanyl)-4-methyl-5-(4-methyl-1,3-oxazol-5-yl)-4H-1,2,4-triazole] the figure was 145 nM; with `Cc1ncoc1-c1nnc(SCCCN2C[C@@H]3CCN(c4ccc(F)cc4)[C@@H]3C2)n1C` (single isomer, unassigned) [Example 23], 45.7 nM; with `Cc1ncoc1-c1nnc(SCCCN2C[C@@H]3CCN(c4ccccc4)[C@@H]3C2)n1C` (single isomer, unassigned) [Example 15, 3-({3-[(3aS,6aS or 3aR,6aR)-1-phenyl-octahydropyrrolo[2,3-c]pyrrol-5-yl]propyl}sulfanyl)-4-methyl-5-(4-methyl-1,3-oxazol-5-yl)-4H-1,2,4-triazole], 372 nM.
Take `Cn1c(SCCCN2C[C@@H]3CCN(c4ccc(C(F)(F)F)cc4)[C@@H]3C2)nnc1-c1cnccn1` (single isomer, unassigned) [Example 92, 2-[5-({3-[(3aS,6aS or 3aR,6aR)-1-[4-(trifluoromethyl)phenyl]-octahydropyrrolo[2,3-c]pyrrol-5-yl]propyl}sulfanyl)-4-methyl-4H-1,2,4-triazol-3-yl]pyrazine dihydrochloride]: the affinity corresponds to a Ki of 155 nM.
In the case of `Cn1c(SCCCN2C[C@@H]3CCN(c4ccc(C(F)(F)F)cc4)[C@@H]3C2)nnc1[C@H]1COCCO1` (single isomer, unassigned) [Example 78, 3-({3-[(3aR,6aR or 3aS,6aS)-1-[4-(trifluoromethyl)phenyl]-octahydropyrrolo[3,4-b]pyrrol-5-yl]propyl}sulfanyl)-5-[(2R or 2S)-1,4-dioxan-2-yl]-4-methyl-4H-1,2,4-triazole dihydrochloride], affinity was put at a Ki of 468 nM.
With `Cn1c(CCCCN2C[C@@H]3CCN(c4ccc(C(F)(F)F)cc4)[C@@H]3C2)nnc1C1CCOCC1` (single isomer, unassigned) [Example 216, 3-{4-[(3aS,6aS or 3aR,6aR)-1-[4-(trifluoromethyl)phenyl]-octahydropyrrolo[3,4-b]pyrrol-5-yl]butyl}-4-methyl-5-(oxan-4-yl)-4H-1,2,4-triazole dihydrochloride], the Ki is greater than 10000 nM.
Same read-out and setting: next, `Cn1c(SCCCN2C[C@H]3CCN(c4ccc(C(F)(F)F)cc4)[C@H]3C2)nnc1C1CCCCC1` (single isomer, unassigned) [Example 60, 3-({3-[(3aR,6aR or 3aS,6aS)-1-[4-(trifluoromethyl)phenyl]-octahydropyrrolo[3,4-b]pyrrol-5-yl]propyl}sulfanyl)-5-cyclohexyl-4-methyl-4H-1,2,4-triazole]: 282 nM.

The test is the same for the next values; noted with them: functional pKi, FLIPR Ca2+, antagonism of dopamine EC80.
As to `Cn1c(SCCCN2CC3CCN(c4ccc(C(F)(F)F)cc4)C3C2)nnc1-c1cnccn1` (centres unmarked) [Example 89, 2-{4-methyl-5-[(3-{1-[4-(trifluoromethyl)phenyl]-octahydropyrrolo[2,3-c]pyrrol-5-yl}propyl)sulfanyl]-4H-1,2,4-triazol-3-yl}pyrazine], the “D2 fpKi” value turned out to be 6.76.
On the same count and under the same terms, with `Cc1ncoc1-c1nnc(SCCCN2CC3CCN(c4ccc(OC(F)(F)F)cc4)C3C2)n1C` (centres unmarked) [Example 26, 4-methyl-3-(4-methyl-1,3-oxazol-5-yl)-5-[(3-{1-[4-(trifluoromethoxy)phenyl]-octahydropyrrolo[3,4-b]pyrrol-5-yl}propyl)sulfanyl]-4H-1,2,4-triazole] the figure was 6.21.

In the next test the target is human dopamine type 3 receptor (CHO-hD3 membranes) (Homo sapiens (Human), UniProt P35462). As to conditions: displacement of 0.3 nM [3H]-Spiperone.
Chain of UniProt P35462 (P35462 whole entry): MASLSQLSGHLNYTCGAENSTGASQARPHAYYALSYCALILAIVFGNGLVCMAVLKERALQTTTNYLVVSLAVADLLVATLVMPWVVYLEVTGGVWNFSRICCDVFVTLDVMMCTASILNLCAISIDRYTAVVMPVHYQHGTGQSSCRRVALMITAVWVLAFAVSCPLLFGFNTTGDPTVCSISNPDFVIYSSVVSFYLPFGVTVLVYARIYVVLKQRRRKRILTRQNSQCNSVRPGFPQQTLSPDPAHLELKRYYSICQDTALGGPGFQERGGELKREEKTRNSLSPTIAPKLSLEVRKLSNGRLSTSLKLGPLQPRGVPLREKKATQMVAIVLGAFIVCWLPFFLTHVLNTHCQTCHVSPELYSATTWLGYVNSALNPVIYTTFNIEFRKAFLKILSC
For the molecule `Cn1c(SCCCN2CC3CCN(c4c(F)cccc4F)C3C2)nnc1-c1ccncc1` (centres unmarked) [Example 154, 4-[5-({3-[1-(2,6-difluorophenyl)-octahydropyrrolo[3,4-b]pyrrol-5-yl]propyl}sulfanyl)-4-methyl-4H-1,2,4-triazol-3-yl]pyridine], the “D3 pKi” value was 8.35.
Same read-out and setting: next, `Cc1cc(-c2nnc(SCCCN3CC4CCN(c5ccc(C(F)(F)F)cc5)C4C3)n2C)on1` (centres unmarked) [Example 163, 4-methyl-3-(3-methyl-1,2-oxazol-5-yl)-5-[(3-{1-[4-(trifluoromethyl)phenyl]-octahydropyrrolo[3,4-b]pyrrol-5-yl}propyl)sulfanyl]-4H-1,2,4-triazole]: 8.59.
For the molecule `Cn1c(SCCCN2CC3CCN(c4ccc(C(F)(F)F)cc4)C3C2)nnc1-c1cccnc1` (centres unmarked) [Example 141, 3-{4-methyl-5-[(3-{1-[4-(trifluoromethyl)phenyl]-octahydropyrrolo[3,4-b]pyrrol-5-yl}propyl)sulfanyl]-4H-1,2,4-triazol-3-yl}pyridine], the “D3 pKi” value stood at 8.45.
Consider `Cn1c(SCCCN2CC3CCN(c4ccc(C(F)(F)F)cc4)C3C2)nnc1C1COCCO1` (centres unmarked) [Example 71, 3-(1,4-dioxan-2-yl)-4-methyl-5-[(3-{1-[4-(trifluoromethyl)phenyl]-octahydropyrrolo[3,4-b]pyrrol-5-yl}propyl)sulfanyl]-4H-1,2,4-triazol], for which the “D3 pKi” value is listed as 7.47.
Still for that read-out and setting: next, `Cn1c(SCCCN2CC3CCN(c4ccc(C(F)(F)F)cc4)C3C2)nnc1-c1ccc(=O)[nH]c1` (centres unmarked) [Example 175, 5-{4-methyl-5-[(3-{1-[4-(trifluoromethyl)phenyl]-octahydropyrrolo[3,4-b]pyrrol-5-yl}propyl)sulfanyl]-4H-1,2,4-triazol-3-yl}-1,2-dihydropyridin-2-one]: 8.35; `CC(C)Oc1ccccc1N1CC[C@@H]2CN(CCCSc3nnc(-c4cnccn4)n3C)C[C@@H]21.Cl.Cl` [Example 119, 2-[5-({3-[(3aR,6aR or 3aS,6aS)-1-[2-(propan-2-yloxy)phenyl]-octahydropyrrolo[3,4-b]pyrrol-5-yl]propyl}sulfanyl)-4-methyl-4H-1,2,4-triazol-3-yl]pyrazine dihydrochloride]: 8.11.
On the same count and under the same terms, next, `Cn1c(SCCCN2C[C@@H]3CCN(c4ccc(C(F)(F)F)cc4)[C@@H]3C2)nnc1-c1ccc(=O)n(C)c1` [Example 193, 5-[5-({3-[(3aS,6aS or 3aR,6aR)-1-[4-(trifluoromethyl)phenyl]-octahydropyrrolo[3,4-b]pyrrol-5-yl]propyl}sulfanyl)-4-methyl-4H-1,2,4-triazol-3-yl]-1-methyl-1,2-dihydropyridin-2-one]: 8.19.
Take `Cn1c(SCCCN2CC3CCN(c4cccc(OC(F)(F)F)c4)C3C2)nnc1-c1cnccn1` (centres unmarked) [Example 114, 2-{4-methyl-5-[(3-{1-[3-(trifluoromethoxy)phenyl]-octahydropyrrolo[3,4-b]pyrrol-5-yl}propyl)sulfanyl]-4H-1,2,4-triazol-3-yl}pyrazine]: the “D3 pKi” value stood at 9.45.
Same read-out and setting: next, `Cc1ncoc1-c1nnc(SCCCN2C[C@H]3CCN(c4ccc(C(F)(F)F)cc4)[C@H]3C2)n1C.Cl.Cl` [Example 6, 3-({3-[(3aR,6aR or 3aS,6aS)-1-[4-(trifluoromethyl)phenyl]-octahydropyrrolo[2,3-c]pyrrol-5-yl]propyl}sulfanyl)-4-methyl-5-(4-methyl-1,3-oxazol-5-yl)-4H-1,2,4-triazole dihydrochloride]: 8.54; `Cn1c(SCCCN2CC3CCN(c4c(F)cccc4F)C3C2)nnc1-c1cc[nH]c(=O)c1` (centres unmarked) [Example 173, 4-[5-({3-[1-(2,6-difluorophenyl)-octahydropyrrolo[3,4-b]pyrrol-5-yl]propyl}sulfanyl)-4-methyl-4H-1,2,4-triazol-3-yl]-1,2-dihydropyridin-2-one]: 7.66; `COc1cc(N2CCC3CN(CCCSc4nnc(-c5cnccn5)n4C)CC32)ccc1F` (centres unmarked) [Example 125, 2-[5-({3-[1-(4-fluoro-3-methoxyphenyl)-octahydropyrrolo[3,4-b]pyrrol-5-yl]propyl}sulfanyl)-4-methyl-4H-1,2,4-triazol-3-yl]pyrazine]: 8.48.
`COc1cc(N2CC[C@@H]3CN(CCCSc4nnc(-c5cnccn5)n4C)C[C@@H]32)ccc1F.Cl.Cl.Cl` [Example 129, 2-[5-({3-[(3aR,6aR or 3aS,6aS)-1-(4-fluoro-3-methoxyphenyl)-octahydropyrrolo[3,4-b]pyrrol-5-yl]propyl}sulfanyl)-4-methyl-4H-1,2,4-triazol-3-yl]pyrazine trihydrochloride]: the “D3 pKi” value is reported as 8.49.
For the molecule `Cl.Cl.Cn1c(SCCCN2C[C@@H]3CCN(c4ccccc4C(F)(F)F)[C@@H]3C2)nnc1-c1ccc(=O)[nH]c1` [Example 182, 5-[5-({3-[(3aS,6aS or 3aR,6aR)-1-[2-(trifluoromethyl)phenyl]-octahydropyrrolo[3,4-b]pyrrol-5-yl]propyl}sulfanyl)-4-methyl-4H-1,2,4-triazol-3-yl]-1,2-dihydropyridin-2-one dihydrochloride], the “D3 pKi” value is 8.21.
In the case of `Cl.Cl.Cn1nccc1-c1nnc(SCCCN2C[C@@H]3CCN(c4ccccc4C(F)(F)F)[C@@H]3C2)n1C` [Example 188, 3-({3-[(3aS,6aS or 3aR,6aR)-1-[2-(trifluoromethyl)phenyl]-octahydropyrrolo[3,4-b]pyrrol-5-yl]propyl}sulfanyl)-4-methyl-5-(1-methyl-1H-pyrazol-5-yl)-4H-1,2,4-triazole dihydrochloride], the “D3 pKi” value is 8.79.
The same measure, in the same setting: with `Cn1c(SCCCN2CC3CCN(c4cccnc4)C3C2)nnc1C1CCOCC1` (centres unmarked) [Example 46, 3-[5-(3-{[4-methyl-5-(oxan-4-yl)-4H-1,2,4-triazol-3-yl]sulfanyl}propyl)-octahydropyrrolo[2,3-c]pyrrol-1-yl]pyridine] the figure was 7.10.
As for `COc1cccc(N2CCC3CN(CCCSc4nnc(-c5cnccn5)n4C)CC32)c1` (centres unmarked) [Example 109, 2-[5-({3-[1-(3-methoxyphenyl)-octahydropyrrolo[3,4-b]pyrrol-5-yl]propyl}sulfanyl)-4-methyl-4H-1,2,4-triazol-3-yl]pyrazine], the “D3 pKi” value came out at 8.10.
